# From PubChem BioAssay AID1345083 (National Center for Advancing Translational Sciences (NCATS), 2018)
# Screen size: about 94,000 compounds; about 6,200 (6.6%) were called active. Inconclusive means that the source gave no clear call. Such entries were picked first, then a sample of the others. Calls follow the shape of the dose curve; as a rule, active = well fitted inhibition curve with a large enough effect; inconclusive = small, poorly fitted or top-dose-only effect; inactive = flat fitted curve, though single readings scatter. Potencies beside an inconclusive call are fits to weak or partial responses and may not hold up.
# Assay: Cytotoxic Profiling in HEK 293 Cell Line of Diverse Libraries Using Quantitative High-Throughput Screening; also: nearly all actives have a fitted effect of over 60% in size
# Conditions: HEK 293 viability, ATP luminescence (CellTiter-Glo), 48-72 h; activity change, negative = cytotoxicity: at 115 µM (top of the series) unless noted; series mostly up to 115 µM
# Outline: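 Read-out: CellTiter-Glo ATP luminescence. Cells: HEK 293, 250 cells/well. Exposure: 48 or 72 hr, 37 degree Celsius.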
# % is scaled to controls: 0 for no effect and ±100 for the full control effect; potency is read from the fitted curve at half-maximal effect; tags tell the direction and shape of the fitted curve.
SMILES,"activity change, negative = cytotoxicity",Potency,outcome
Cc1ccc(-c2cc(N3CCC(CNC(=O)c4ccc(N(C)C)cc4)CC3)n[nH]2)cc1,inactive: -2%,,
Cc1ccc(-c2cc3c(=O)n(CCNC(=O)c4ccc(N(C)C)cc4)ccn3n2)c(C)c1,,"inconclusive: 89.1 µM [inhibitor, single point]",
CCc1noc(-c2cn(C3CCCN(C(=O)COc4ccc(F)cc4)C3)nn2)n1 (stereo not given),inactive: -20.1%,,
CN1CCCC2(C1)CN(Cc1cccnc1)c1ccc(C(=O)Nc3ccccc3)cc12 (stereo not given),,"inconclusive: 126 µM [inhibitor, single point]",
COc1cccc(CCC(=O)N2CCC(Cc3nc(C4CCOCC4)no3)CC2)c1,inactive: -8.97%,,
COc1ccc(CN2C[C@@H]3C[C@H]2C(=O)N(Cc2ccccn2)c2ccccc2O3)cc1,,"inconclusive: 79.4 µM [inhibitor, partial curve, poor fit]",
CN(C)c1cccc(C(=O)N2CCN(c3cc(-c4ccc(Cl)cc4)[nH]n3)CC2)c1,,"inconclusive: 50.1 µM [inhibitor, partial curve, poor fit]",
Cc1ccc(CNC(=O)c2c(C)sc3ccn(CC(C)C)c(=O)c23)o1,,"inconclusive: 56.2 µM [inhibitor, partial curve, poor fit]",
CNC(=O)CCn1ncc2cc(OCc3ccccc3-c3ccccc3OC)ccc21,,"inconclusive: 89.1 µM [inhibitor, partial curve, poor fit]",
COCC1CN(Cc2cccc(OC(F)(F)F)c2)CC12CCNCC2 (stereo not given),,"inconclusive: 50.1 µM [inhibitor, partial curve, poor fit]",
Cc1ccc(C2(O)CCN(c3ncccc3C(F)(F)F)CC2)nc1,,"inconclusive: 89.1 µM [inhibitor, single point]",
Cc1ccncc1C(=O)N1CCC(Oc2ccccc2-c2nc(C3CC3)no2)C1 (stereo not given),,"inconclusive: 39.8 µM [inhibitor, full curve, poor fit]",
COc1ccc(C)cc1NC(=O)Cn1c(-c2ccc(Cl)cc2)nc(C)cc1=O,,"inconclusive: 31.6 µM [inhibitor, full curve, poor fit]",
Cc1noc(-c2cccc(OC3CN(C(=O)CCCc4ccccc4)C3)c2)n1,,"inconclusive: 50.1 µM [inhibitor, partial curve, poor fit]",
CN1CCN(c2cc(=O)c3ccnc(-c4ccc(CO)cc4)c3o2)CC1,,,inactive [at 172 µM]
O=C(c1ccc(Cl)cc1)N1CCN(Cc2ccccc2-c2cccnc2)CC1,,"inconclusive: 39.8 µM [inhibitor, partial curve, poor fit]",
O=[S+]([O-])(c1ccccc1)N1CCC2(CC(c3cccc(C(F)(F)F)c3)=NO2)C1 (stereo not given),,"inconclusive: 70.8 µM [inhibitor, partial curve, poor fit]",
CNCCNC(=O)C1CCN(c2nc(-c3ccccc3)nc3c2CCC3)CC1,,"inconclusive: 50.1 µM [inhibitor, partial curve, poor fit]",
O=C(c1cnc2n[nH]c(-c3ccccc3)c2n1)N1CCN(c2ccccn2)CC1,,active: 70.8 µM,
Cc1ccc(CNC(=O)N2CCCCCNC(=O)CC2c2ccccc2)cc1 (stereo not given),inactive: -28.8%,,

SMILES,"activity change, negative = cytotoxicity",Potency,outcome
Cc1cnc(C(=O)N[C@@H]2CCC[C@@H]2C(=O)NCc2ccccc2)cn1,,,inactive
O=C(C1CCCN([S+](=O)([O-])c2cccc(C(F)(F)F)c2)C1)N1CCC(c2ccccc2)CC1 (stereo not given),,"inconclusive: 11.2 µM [inhibitor, full curve, poor fit]",
Cc1cccc(OCCc2noc(C3CCCN3C(=O)C3CCCC3)n2)c1 (stereo not given),,"inconclusive: 79.4 µM [inhibitor, partial curve, poor fit]",
CN(Cc1cccn1C)C(=O)Nc1ccc(Cl)cc1,,"inconclusive: 100 µM [inhibitor, partial curve]",
O=C(c1ccccc1)N1CCC2(CC1)CC(N(Cc1ccccc1)C1CC1)CCO2 (stereo not given),,"inconclusive: 50.1 µM [inhibitor, partial curve, poor fit]",
COc1ccccc1-n1nc(-c2c(C)nc3scc(CC(=O)NCc4ccccc4)n3c2=O)cc1C,,,inactive
CCOc1ccc(C(=O)NC2CCc3n[nH]c(=O)n3CC2)cc1OCC (stereo not given),,,inactive
COc1ccc(-c2ccc(C(=O)Nc3cccc(Cl)c3)cc2)nn1,,"inconclusive: 15.8 µM [inhibitor, partial curve, poor fit]",
Fc1ccc(CN2CCNc3cnc(OCc4cccnc4)cc3C2)cc1F,,"inconclusive: 79.4 µM [inhibitor, partial curve, poor fit]",
O=C(NCc1ccccc1)NC[C@H]1Cn2cc(-c3ccccc3)nc2CO1,,"inconclusive: 79.4 µM [inhibitor, partial curve, poor fit]",
CC(O)c1cc2n(n1)CCCN(Cc1cccc(OC3CCCC3)c1)C2 (stereo not given),,"inconclusive: 31.6 µM [inhibitor, full curve, poor fit]",
CN1CCN(c2ccc(-c3cccc(NC(=O)C4CCCCC4)c3)nn2)CC1,,"inconclusive: 50.1 µM [inhibitor, partial curve, poor fit]",
CS(=O)(=O)N1CCCN(Cc2cn[nH]c2-c2cccs2)CCNC(=O)CC1c1ccccc1 (stereo not given),inactive: -16.1%,,
CC(=O)N1CCc2ccc(C(=O)N3CCCCCC3)cc21,inactive: -7.22%,,
O=C1CCN(S(=O)(=O)c2ccccc2)CCCN(Cc2ccc(C(F)(F)F)cc2)CCN1,,"inconclusive: 50.1 µM [inhibitor, partial curve, poor fit]",
CCC1Oc2ccc(NC(=O)c3c(F)cccc3F)cc2CN(Cc2ccc(F)cc2Cl)C1=O (stereo not given),,"inconclusive: 22.4 µM [inhibitor, full curve]",
COc1ccc(CC2CCOC3(CCN(C(=O)Nc4ccccc4F)CC3)C2)cc1 (stereo not given),,"inconclusive: 70.8 µM [inhibitor, partial curve, poor fit]",
C[S+](=O)([O-])N1CCN(c2nc3ncccc3o2)CC1,inactive: -15% [at 172 µM],,
CCn1cc(-c2ccc(OC)cc2)cc1C(=O)NC(C)c1cccnc1 (stereo not given),,"inconclusive: 89.1 µM [inhibitor, single point]",
CCCC(=O)N1CC2(CCCN2CC2CC2)Cc2ccccc21 (stereo not given),,"inconclusive: 89.1 µM [inhibitor, partial curve]",
